Assay results taken from article PMC4336329 (PLoS ONE, 2015).
Hit rate of the full screen: of about 310,000 compounds, about 2,200 (0.71%) showed an effect of 50% or more. The effect is printed as a negative number. The list shows a part of the results.

These compounds were tested against human ether-à-go-go-related gene (hERG) potassium channel (human, UniProt Q12809) (assay: primary screen, population patch clamp on CHO cells stably expressing hERG).
human ether-à-go-go-related gene (hERG) potassium channel, sequence (Q12809 whole entry, looked up): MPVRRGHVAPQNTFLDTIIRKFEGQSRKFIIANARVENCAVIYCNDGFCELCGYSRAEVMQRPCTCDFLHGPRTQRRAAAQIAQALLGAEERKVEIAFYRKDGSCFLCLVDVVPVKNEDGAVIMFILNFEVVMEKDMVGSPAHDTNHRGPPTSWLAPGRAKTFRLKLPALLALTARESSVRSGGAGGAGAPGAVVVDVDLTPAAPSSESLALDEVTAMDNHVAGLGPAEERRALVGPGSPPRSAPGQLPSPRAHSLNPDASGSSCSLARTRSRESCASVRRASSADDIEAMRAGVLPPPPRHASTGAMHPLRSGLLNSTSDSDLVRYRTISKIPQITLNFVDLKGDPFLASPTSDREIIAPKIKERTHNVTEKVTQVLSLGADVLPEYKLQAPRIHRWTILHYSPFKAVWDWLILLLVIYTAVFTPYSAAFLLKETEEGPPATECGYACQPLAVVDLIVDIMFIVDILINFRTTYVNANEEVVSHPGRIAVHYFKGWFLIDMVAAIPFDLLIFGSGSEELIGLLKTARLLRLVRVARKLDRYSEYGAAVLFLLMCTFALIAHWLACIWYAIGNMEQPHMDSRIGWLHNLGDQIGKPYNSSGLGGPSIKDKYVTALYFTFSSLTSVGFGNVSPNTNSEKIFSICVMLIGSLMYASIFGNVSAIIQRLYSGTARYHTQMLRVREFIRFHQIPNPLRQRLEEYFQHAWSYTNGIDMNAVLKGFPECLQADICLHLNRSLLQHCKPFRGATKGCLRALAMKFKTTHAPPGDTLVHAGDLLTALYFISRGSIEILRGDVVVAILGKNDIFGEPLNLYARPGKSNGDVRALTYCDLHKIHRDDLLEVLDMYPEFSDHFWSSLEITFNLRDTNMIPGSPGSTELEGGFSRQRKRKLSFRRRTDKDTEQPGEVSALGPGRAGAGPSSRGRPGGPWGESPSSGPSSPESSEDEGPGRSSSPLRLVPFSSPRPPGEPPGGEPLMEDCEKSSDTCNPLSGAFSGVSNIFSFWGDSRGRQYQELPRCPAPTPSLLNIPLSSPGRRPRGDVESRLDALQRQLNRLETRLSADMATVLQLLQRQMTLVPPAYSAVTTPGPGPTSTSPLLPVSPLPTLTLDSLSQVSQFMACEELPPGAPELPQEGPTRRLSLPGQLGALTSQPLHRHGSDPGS

SMILES	hERG current change (%, negative = inhibition) at 1uM
CCN(CC)CCCCN1c2ccccc2Sc2ccccc21.Cl	3.62%
CCN(C1CCS(=O)(=O)C1)S(=O)(=O)c1ccc2ccccc2c1 (stereo not drawn)	5.58%
CN1C(C(=O)NCc2ccco2)CC2Cn3c(nc4cc(Cl)c(Cl)cc43)C21 (stereo not drawn)	-1.47%
COc1cccc(NC(=O)CN(C)C(=O)CNC(=O)c2ccccc2F)c1	10.5%
COc1cccc(C(=O)N2CCN(C(=O)c3cccc4ccccc34)CC2)c1OC	12.5%
COC(=O)c1ccc(N2OC3(C)C=CC2CC3)cc1 (stereo not drawn)	11%
Cc1cc(C)n(C(=O)c2ccc(C)c(Br)c2)n1	12.4%
Cc1cc(Cl)ccc1OC(C)C(=O)NC(C)C1CCCO1 (stereo not drawn)	6.71%
CCC(CO)Oc1cc(NC(=O)c2ccc(C)cc2)c2ncn(C(C)C)c2c1 (stereo not drawn)	8.6%
CC(C)CCCN1C(N(C)C)=NC[C@@H]1Cc1ccccc1	-2.29%
CC(C)=C1SC(N2CCOCC2)=NC1=O	12.9%
O=S(=O)(c1ccc(F)cc1)N1CCC(O)(c2ccc3c(c2)OCO3)CC1	0.314%
Nc1nc(N2CCN(c3ccccc3)CC2)n[nH]1	6.41%
Fc1ccc(CNCCc2ccc3c(c2)OCO3)cc1	13.8%
O=C(C[n+]1ccc(C(=O)NCc2ccccc2)cc1)c1ccc(OC(F)F)cc1.[Br-]	-81.2%
Cc1ccc(C(=O)Nc2cccc(NC(=O)c3ccc(C)cc3)n2)cc1	6.48%
CCCCCn1c(=O)[nH]c2cc(C(=O)NCCCN3CCCCC3CC)ccc2c1=O (stereo not drawn)	-7.23%
COCCN1C(=O)N[C@@H](c2ccccc2)C(C(C)=O)=C1C	18.1%
COc1ccc(NC(=O)C2CCCN(S(=O)(=O)c3cccnc3)C2)cc1OC (stereo not drawn)	14.7%

SMILES	hERG current change (%, negative = inhibition) at 1uM
O=C(NN1CCOCC1)c1ccc(Br)cc1	10.5%
Cc1ccc(OCCC(=O)OCC(=O)Nc2ccc(N3CCOCC3)cc2)cc1	9.86%
O=C(c1ccc(S(=O)(=O)N2CCCCCC2)cc1)N1CCN(Cc2ccccc2)CC1	5.56%
Cc1ccccc1Nc1c(-c2cccnc2)nc2ccccn12	-0.963%
CSc1nc2ccc(NS(=O)(=O)c3ccc(Cl)s3)cc2s1	11.5%
CC(=O)C1=C(O)C(=O)N(Cc2ccccc2)C1c1ccc(F)cc1 (stereo not drawn)	14%
CS(=O)(=O)N1N=C(c2ccco2)CC1c1cccc([N+](=O)[O-])c1 (stereo not drawn)	6.47%
CCN1C(=O)c2ccc(C(=O)Nc3ncc(C)s3)cc2C1=O	8.87%
Cc1ccc([N+](=O)[O-])cc1NC(=O)c1ccccc1	0.0028%
COc1cc2[nH]c(C(=O)N3CCN(c4ccc(F)cc4)CC3)cc2c(OC)c1OC	15.4%
COc1cccc(CNC(=O)c2ccccc2NC(=O)C2=C(C)OCCS2)c1OC	8.72%
O=C(c1ccc([N+](=O)[O-])s1)N1CCCc2ccccc21	11.1%
CCCc1nnc(NC(=O)C(C)N2C(=O)C3C4C=CC(C4)C3C2=O)s1 (stereo not drawn)	11%
O=C(CCCN1C(=O)C(c2ccccc2)Oc2cccnc21)Nc1cccc(F)c1 (stereo not drawn)	9.02%
O=C(N/N=C/c1cccnc1)c1ccc(S(=O)(=O)N2CCCCCC2)cc1	7.54%
O=C(CSc1nnc(Cn2nnc3ccccc32)o1)N(Cc1ccc(F)cc1)c1ccccc1	-1.71%
Cc1ccccc1CN(c1ccc(C(=O)Nc2cccnc2)cc1)S(C)(=O)=O	3.11%
COc1ccc(Nc2oc(COc3ccccc3OC)nc2C#N)cc1	8%
COc1ccc(F)cc1C(=O)C1CCCN(C(=O)c2ccccc2N(C)C)C1 (stereo not drawn)	2.58%

SMILES	hERG current change (%, negative = inhibition) at 1uM
CN(C)CCCn1c(SCC(=O)Nc2nccs2)nnc1-c1ccncc1	15.9%
Cl.c1ccc(OCCN2C3=NCCN3c3ccccc32)cc1	-51.5%
COc1ccccc1CNC(=O)CCc1c(C)nc2cc(-c3ccccc3OC)nn2c1C	2.88%
Cc1cc(C(=O)N/N=C/c2cccc(Cl)c2Cl)no1	3.36%
COc1ccc(OC)c(S(=O)(=O)N(C)CC(=O)Nc2cc(Cl)ccc2OC)c1	-4.33%
CCc1ccc2[nH]c(=O)c(Cc3ccccc3)c(O)c2c1	3.87%
OCCNc1nc(C2CC2)nc2c1nnn2Cc1ccccc1Cl	10.4%
COC(=O)c1ccc(NC(=O)c2cccc(N3C(=O)C4C5C=CC(C6CC56)C4C3=O)c2)cc1 (stereo not drawn)	8.79%
CC(=O)Oc1ccc2oc(-c3ccccc3)c(C(N)=O)c2c1	-4.49%
O=C(C1CCCN(S(=O)(=O)c2cccnc2)C1)N1CCn2c1nc1ccccc12 (stereo not drawn)	-3.85%
Cc1onc(-c2ccccc2)c1C(=O)NC(=S)NNC(=O)c1ccco1	12.8%
Cc1sc2ncn(Cc3ccccc3F)c(=O)c2c1C	1.65%
Cc1onc(-c2ccccc2)c1C(=O)N/N=C/c1ccco1	10.6%
CCCCS(=O)(=O)/C=C\C=C/S(=O)(=O)CCCC	6.71%
Cc1ccc(NC(=O)Nc2cccnc2)cc1	7.24%
C=Cn1ccnc1P(=S)(c1ccc2c(c1)c1ccccc1n2CC)c1nccn1C=C	9%
Cc1ccc(Oc2ccc(NC(=O)C3=CC=CN4CCS(=O)(=O)N=C34)cc2)cc1	0.359%
COc1ccc(NS(=O)(=O)c2cccs2)cn1	4.27%
CCN(CC)C(=O)C1CCCN(c2ncnc3c2cnn3-c2ccc(Cl)cc2)C1 (stereo not drawn)	-1.93%
